From the supplement of paper PMC4604168 (melanoma cell lines)
Some of the results follow. Most values come without repeats; read them as rough.

Legend:
Experiment in all cases: cell count relative to DMSO control; melanoma cells; higher = more viable cells
Conditions in all cases: library dose: standard library concentration; 72 h; first compound 2 µM
[1] = system: G361
[2] = system: IPC-298
[3] = system: IST-MEL1
[4] = system: LB2518-MEL
[5] = system: LOXIMVI
[6] = system: MEL-HO
[7] = system: MZ2-MEL
[8] = system: MeWo
[9] = system: RPMI7951
[10] = system: RVH-421
[11] = system: SkMel28
[12] = system: SkMel2
[13] = system: SkMel30
[14] = system: SkMel5
[15] = system: UACC257
[16] = system: UACC62
[17] = system: WM115
[18] = system: WM1716
[19] = system: WM1745
[20] = system: WM3526
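Further: cells treated in 1,536-well plates, then fixed and DAPI-stained, with nuclei counted from automated high-throughput microscope images.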

Compound	cell count [1] [%]	cell count [2] [%]	cell count [3] [%]	cell count [4] [%]	cell count [5] [%]	cell count [6] [%]	cell count [7] [%]	cell count [8] [%]	cell count [9] [%]	cell count [10] [%]	cell count [11] [%]	cell count [12] [%]	cell count [13] [%]	cell count [14] [%]	cell count [15] [%]	cell count [16] [%]	cell count [17] [%]	cell count [18] [%]	cell count [19] [%]	cell count [20] [%]
C[C@@H](N)c1ccc(C(=O)Nc2ccnc3[nH]ccc23)cc1 + C=C(c1ccc(C(=O)O)cc1)c1cc2c(cc1C)C(C)(C)CCC2(C)C [Bexarotene] (partner dose 10 µM)	88.9	86.7	92	100	47.6	69.5	54	53.9	57.1	42.6	33.2	85.8	83.4	64.2	31.5	84.1	104	13.6	56.5	73.3
C[C@@H](N)c1ccc(C(=O)Nc2ccnc3[nH]ccc23)cc1 + Cc1cc(Nc2cc(N3CCN(C)CC3)nc(/C=C/c3ccccc3)n2)n[nH]1 [ENMD2076] (partner dose 0.2 µM)	86.4	84	82.4	78.6	81.1	50.2	52.9	67.8	42.4	46.4	56.2	91.9	94.1	58	41.1	76.9	48.5	30.3	43.5	87.6
CCCCCCCCCCCCCCCCCCOP(=O)([O-])OC1CC[N+](C)(C)CC1 [Perifosine] + CC(C)C[C@H](NC(=O)[C@H](Cc1ccccc1)NC(=O)c1cnccn1)B(O)O [Bortezomib] (partner dose 0.005 µM)	1.19	7.93	14.9	3.55	44.9	38.3	6.53	14.6	1.59	6.3	17.8	33.5	20	18.5	79.3	43.6	19.4	17.6	19.5	26.1
Cn1sc(=O)n(Cc2ccccc2)c1=O + COc1cc2c(Oc3ccc4[nH]c(C)cc4c3F)ncnc2cc1OCCCN1CCCC1 [cediranib] (partner dose 2 µM)	81.2	96.9	111	94.7	61.4	110	83.4	80.8	73.7	97.2	81	91.7	75.5	82.6	93.6	82.1	68.2	96.3	88.2	75.2
Cn1sc(=O)n(Cc2ccccc2)c1=O + COCC[n+]1c2c(n(Cc3cnccn3)c1C)C(=O)c1ccccc1C2=O [YM155] (partner dose 0.002 µM)	86	69.6	42	31.3	45	103	30.3	53.9	39.5	140	59.5	44	70.7	37.8	32.4	52.5	72.5	66.2	87	39.4
C[C@@H](N)c1ccc(C(=O)Nc2ccnc3[nH]ccc23)cc1 + COc1cc(Nc2ncc(F)c(Nc3ccc4c(n3)NC(=O)C(C)(C)O4)n2)cc(OC)c1OC [Tamatinib] (partner dose 2 µM)	54	79.3	43.4	89.3	23.7	61.5	39.5	38.3	11.1	60.7	44.2	64.5	68.8	31.4	66.2	65	79.1	31.9	19.3	57.9
Cn1sc(=O)n(Cc2ccccc2)c1=O + Cn1c(=O)n(-c2ccc(C(C)(C)C#N)cc2)c2c3cc(-c4cnc5ccccc5c4)ccc3ncc21 [NVP-BEZ235] (partner dose 0.02 µM)	60.9	84.5	70.5	78.6	51.3	63.4	80.1	74.4	66.8	81.8	54.4	65.1	57.4	73.5	101	78.1	77.7	68.8	92.8	90.9
C[C@@H](N)c1ccc(C(=O)Nc2ccnc3[nH]ccc23)cc1 + CN(NC(=O)CC(=O)NN(C)C(=S)c1ccccc1)C(=S)c1ccccc1 [STA4783] (partner dose 0.03 µM)	26.3	93	43	12	66.9	64.8	56.7	12.5	40.2	26.9	5.82	43.6	92.8	24.3	79.7	44.2	23.4	57.7	23.1	93.3
Cn1sc(=O)n(Cc2ccccc2)c1=O + COc1ccc(Cl)c(Nc2nc3ccccc3nc2NS(=O)(=O)c2cccc(NC(=O)C(C)(C)N)c2)c1 [XL147] (partner dose 4 µM)	82.3	75.5	70.8	89.1	85.7	67.4	77.5	104	99.6	80	98.7	114	97.7	95.2	84.8	112	107	91.3	105	98.6
